Reference: PubChem BioAssay AID651820 (National Center for Advancing Translational Sciences (NCATS), 2012)
Hit rate of the full screen: of about 340,000 compounds, about 12,000 (3.5%) were called active. The inconclusive results got no clear call from the source; some entries with a clear call stand among them for comparison. Calls follow the shape of the dose curve; as a rule, active = well fitted inhibition curve with a large enough effect; inconclusive = small, poorly fitted or top-dose-only effect, or another doubt; inactive = no such curve, though single readings can be large or run the other way. No potency is given beside an inconclusive call; the fits are too rough.
Potency is read from the fitted curve at half-maximal effect; tags tell the direction and shape of the fitted curve.

Experiment: qHTS Assay for Inhibitors of Hepatitis C Virus (HCV)
Conditions: Huh7.5.1 HCVcc-Cre (HCVcc is cell-culture hepatitis C virus) infection, luciferase reporter, 44 h; series mostly up to 41.8 µM
Outline: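 HCVcc-Cre virus at an moi near 0.5 was added right after compound to cells cultured 4 h from seeding (1,000 cells/well). Luciferase activity was determined 44 h later, 15 min after substrate addition at RT.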
With `O=C(NCCCc1ccccc1)c1cccc(NC(=O)C2CCCCC2)c1` the Potency was active: 4.47 µM.
With `COC(=O)c1sc2nc(C)cc(-c3ccccc3)c2c1N` the Potency was inconclusive [inhibitor, full curve].
With `Cn1ncc2c(Nc3ccc(-c4ccccc4)cc3)ncnc21` the Potency was inconclusive [inhibitor, single point].
With `CO/N=C/c1ccc(OC)c(Oc2nc(OC)cc(OC)n2)c1` the Potency was inconclusive [inhibitor, single point].
With `Cc1nnc(SCCn2c(N3CCN(Cc4ccccc4)CC3)nc3c2c(=O)[nH]c(=O)n3C)s1` the Potency was “inactive”.
With `CCCCN1C(=O)C(=O)N(CC(=O)c2cc(C)n(-c3cc(C)on3)c2C)C1=O` the Potency was “inactive”.
For `Cc1cc(NC(=O)Cn2nc(-c3ccccc3F)ccc2=O)ccc1-n1cnnn1`, the Potency was inconclusive [inhibitor, partial curve].
In the case of `COc1ccc(-n2c(C)c(C)c3c(NCCCN(C)C)ncnc32)cc1`, the Potency was “inactive”.
For `Cc1cc(C)c2nc(NC(=O)C3CSC4(C)CCC(=O)N34)sc2c1` (stereo not drawn), the Potency was inconclusive [inhibitor, single point].
With `CCN(CC)CCn1c(=N)n(CCOc2ccccc2)c2ccccc21` the Potency was active: 10 µM.
For `CCOc1ccc(NC(=O)N2CCC(c3ccc(C)cc3)C2)cc1` (stereo not drawn), the Potency was inconclusive [inhibitor, single point].
For `CC1CCN(S(=O)(=O)c2ccc(C(=O)Nc3ccccc3-c3nc4ccccc4[nH]3)cc2)CC1`, the Potency was inconclusive [inhibitor, partial curve].
For `Cc1oc(-c2ccccc2)cc1C(=O)Nc1cccc2ccccc12`, the Potency was inconclusive [inhibitor, single point].
With `C=CCn1c(SCc2ccc(OC)cc2)nnc1-c1cccnc1` the Potency was “inactive”.
For `O=C(/C=C/c1ccccc1)N/C(=C/c1ccccc1)C(=O)Nc1ccccc1O`, the Potency was inconclusive [inhibitor, partial curve].
With `O=C1CS/C(=N/N=C/c2ccco2)N1Cc1ccc(F)cc1` the Potency was “inactive”.
With `CCOc1ccc(N(CC(=O)O)S(=O)(=O)c2ccc(F)cc2)cc1` the Potency was “inactive”.
With `CCOc1ccccc1N(C)C(=O)c1cc2c(=O)n(CC)c3ccccc3c2s1` the Potency was active: 2 µM.
For `Cc1nc2ccccn2c1C(=O)CSc1ccc(Cl)cc1Cl`, the Potency was inconclusive [inhibitor, single point].
With `COc1cc(Cl)c(C)cc1NC(=O)c1cccc(OC)c1OC` the Potency was inconclusive [inhibitor, single point].
For `CCN(CC)S(=O)(=O)c1ccc(C)c(NC(=O)CNc2cccc(S(=O)(=O)N3CCOCC3)c2)c1`, the Potency was inconclusive [inhibitor, single point].
For `COc1ccc(NC(=O)C(=O)NCC2CCCN2S(=O)(=O)c2cccs2)cc1` (stereo not drawn), the Potency was inconclusive [inhibitor, partial curve].
In the case of `COc1cc(C(CCN2CCOCC2)c2c(OC)cc(OC)c3c(-c4ccccc4)cc(=O)oc23)cc(OC)c1OC` (stereo not drawn), the Potency was inconclusive [inhibitor, single point].
For `COc1ccc(NC(=O)CN2CCN(CC(=O)Nc3ccccc3F)CC2)cc1OC`, the Potency was inconclusive [inhibitor, single point].
With `CCN(Cc1ccccc1)c1ccc(/C=C(\C#N)c2ccccn2)cc1` the Potency was “inactive”.
For `O=C(C1CCCN(S(=O)(=O)c2ccc(Cl)cc2)C1)N(Cc1cccs1)C1CC1` (stereo not drawn), the Potency was active: 10 µM.
With `Fc1cccc(Cc2noc(CN3CCN(C4CCc5ccccc5C4)CC3)n2)c1` (stereo not drawn) the Potency was “inactive”.
In the case of `COc1ccc(N=C2C(=Nc3ccc(OC)cc3)N(c3ccc(OC)cc3)C(=S)N2c2ccccc2)cc1`, the Potency was inconclusive [inhibitor, partial curve].
With `CCc1cc(-c2[nH]ncc2-c2ccc3c(c2)OCO3)c(O)cc1O` the Potency was inconclusive [inhibitor, partial curve, poor fit].
For `Cc1ccc(C(=O)NCCSCc2ccc(Cl)cc2Cl)cc1[N+](=O)[O-]`, the Potency was inconclusive [inhibitor, partial curve].
With `Cc1cccnc1NC(=S)Nc1ccc(Br)cc1Cl` the Potency was inconclusive [inhibitor, single point].
With `CCOc1ccc(CCNC(=O)c2cc(C)nc3ccccc23)cc1OCC` the Potency was inconclusive [inhibitor, single point].
With `COc1ccccc1N(Cc1ccccc1)S(=O)(=O)c1cccc(C(=O)Nc2cc(C)ccn2)c1` the Potency was inconclusive [inhibitor, single point].
For `CCOC(=O)N1CCN(S(=O)(=O)c2ccc(C(=O)N(CCN(CC)CC)c3nc4c(C)cccc4s3)cc2)CC1`, the Potency was “inactive”.
For `C#CCOCCOCCOCCNc1nc(N2CCN(C(=O)CCCCCCCCCCNC(=O)[C@H]([C@@H](C)CC)n3cc(CCCCCN)nn3)CC2)nc(N2CCN(C(=O)CCCCCCCCCCNC(=O)[C@H](CO)n3cc(CCCCCN)nn3)CC2)n1`, the Potency was inconclusive [inhibitor, single point].
With `N#Cc1c(SCC(=O)OCc2ccccc2)nsc1SCC(=O)OCc1ccccc1` the Potency was “inactive”.
In the case of `O=C(CCCCC(=O)NN=Cc1ccccc1O)NN=Cc1ccccc1O`, the Potency was inconclusive [inhibitor, partial curve].
For `O=C(Nc1nnc(-c2ccc3c(c2)CCCC3)o1)c1ccccc1`, the Potency was inconclusive [inhibitor, single point].
In the case of `Cc1nc2scc(-c3cccs3)c2c(=O)n1-n1cccc1`, the Potency was inconclusive [inhibitor, single point].
In the case of `O=S(=O)(N/N=C\c1ccc2c(c1)OCO2)c1ccccc1`, the Potency was “inactive”.
In the case of `CCOC(=O)C1=C(CSc2nc3ccccc3s2)NC(=O)NC1c1cc(C)ccc1C` (stereo not drawn), the Potency was inconclusive [inhibitor, partial curve].
For `Cc1ccccc1Cn1nc(C)c(NC(=O)c2cc(CC(C)C)on2)c1C`, the Potency was inconclusive [inhibitor, partial curve].
With `Cc1ccc(C)c(Oc2coc3cc(OCC(=O)Nc4ccccc4C(C)C)ccc3c2=O)c1` the Potency was inconclusive [inhibitor, single point].
In the case of `Cc1ccc(C2C(C#N)=C3N=C(N)c4ccccc4N3C3=C2C(=O)CCC3)cc1` (stereo not drawn), the Potency was inconclusive [inhibitor, partial curve].
With `Cc1cc(C(=O)COC(=O)Cc2n[nH]c(=O)c3ccccc23)c(C)n1-c1ccc2c(c1)OCCO2` the Potency was “inactive”.
In the case of `CC1CCCC(C)N1S(=O)(=O)c1ccc(NC(=O)CCn2cnc3ccccc3c2=O)cc1` (stereo not drawn), the Potency was “inactive”.
In the case of `N#Cc1c(-c2cccs2)cc(-c2cccs2)[nH]c1=O`, the Potency was “inactive”.
In the case of `CCCN(CC(=O)Nc1ccc(Cl)cc1Cl)C(=O)/C=C/c1ccco1`, the Potency was inconclusive [inhibitor, partial curve].
For `CCc1cc(/C(Cc2ccccn2)=N\O)c(O)cc1O`, the Potency was active: 22.4 µM.
With `Cn1c(CSCc2ccc(F)cc2)nnc1SCC(=O)Nc1nccs1` the Potency was inconclusive [inhibitor, single point].
For `CC1(C)CC(=O)C2=C(C1)Nc1ccccc1S2`, the Potency was inconclusive [inhibitor, partial curve].
For `Cc1ccc2nc(-c3ccc(NC(=S)NC4CC(C)(C)NC(C)(C)C4)cc3)sc2c1`, the Potency was inconclusive [inhibitor, full curve, poor fit].
For `CCOc1ccc(C(=O)OC(C)CN2CCN(C)CC2)cc1` (stereo not drawn), the Potency was active: 1.78 µM.
With `CCN1CCN(c2ccc(S(=O)(=O)N3CCCCC3)cc2NC(=O)/C=C/c2cccc(OC)c2OC)CC1` the Potency was inconclusive [inhibitor, partial curve].
For `CN(Cc1ccsc1)C(=O)CCc1nnc(CCCc2ccccc2)o1`, the Potency was “inactive”.
For `Cn1c(=O)c2c(SC3CCCC3)nc(C3CC3)nc2n(C)c1=O`, the Potency was inconclusive [inhibitor, full curve, poor fit].
For `CC1CCCCN1Cc1nc2c(c(=O)n(C)c(=O)n2C)n1CCCc1ccccc1` (stereo not drawn), the Potency was inconclusive [inhibitor, single point].
In the case of `CN(CC(=O)Nc1ccccc1N1CCOCC1)S(=O)(=O)c1ccc(F)cc1`, the Potency was inconclusive [inhibitor, single point].
For `CN(C)c1ccc(/C=N/NC(=O)C2COc3ccccc3O2)o1` (stereo not drawn), the Potency was “inactive”.
With `O=C(COC(=O)c1cc(S(=O)(=O)N2CCCCC2)ccc1N1CCOCC1)c1ccc(Cl)cc1` the Potency was inconclusive [inhibitor, partial curve].
With `CC(C)Nc1nc2nonc2nc1Nc1ccccc1` the Potency was “inactive”.
With `Cc1ccc(NC(=O)CCn2c(=O)[nH]c3ccsc3c2=O)cc1` the Potency was “inactive”.
With `Cc1ccc(NC(=O)CNc2cc(S(=O)(=O)N3CCOCC3)ccc2NCC2CCCO2)cc1F` (stereo not drawn) the Potency was inconclusive [inhibitor, partial curve, poor fit].
For `CCCOc1c(Br)cc(C(=O)NCC)cc1OC`, the Potency was inconclusive [inhibitor, single point].
With `COC(=O)c1ccc(NC(=O)C2CCN(C(=O)Nc3ccccc3)CC2)cc1` the Potency was inconclusive [inhibitor, partial curve].
In the case of `Cc1ccccc1Cn1ccc(NC(=O)c2cnn3c(C(F)(F)F)cc(-c4ccco4)nc23)n1`, the Potency was inconclusive [inhibitor, partial curve].
For `O=P(NCc1ccccc1)(Oc1ccccc1)Oc1ccccc1`, the Potency was inconclusive [inhibitor, single point].
With `COc1ccccc1NC(=O)CN1CCN(c2ccccc2F)CC1` the Potency was inconclusive [inhibitor, single point].
